Laboratory results published in the supplement of paper PMC3334620.
The full ranking holds about 33,000 sequences; the median of “E-score (-0.5 to 0.5)” is about -0.011, and the highest 2% start at about 0.28. Some of the results follow.

molecular target: T1, Gcr1 (UniProt P07261); experiment: PBM E-score (8-mer binding enrichment) (E-score (-0.5 to 0.5)); higher = stronger / more preferred TF binding; most listed sequences are background and not binding sites; details: protein concentration: 100 nM; construct: GST-full length
T1 sequence: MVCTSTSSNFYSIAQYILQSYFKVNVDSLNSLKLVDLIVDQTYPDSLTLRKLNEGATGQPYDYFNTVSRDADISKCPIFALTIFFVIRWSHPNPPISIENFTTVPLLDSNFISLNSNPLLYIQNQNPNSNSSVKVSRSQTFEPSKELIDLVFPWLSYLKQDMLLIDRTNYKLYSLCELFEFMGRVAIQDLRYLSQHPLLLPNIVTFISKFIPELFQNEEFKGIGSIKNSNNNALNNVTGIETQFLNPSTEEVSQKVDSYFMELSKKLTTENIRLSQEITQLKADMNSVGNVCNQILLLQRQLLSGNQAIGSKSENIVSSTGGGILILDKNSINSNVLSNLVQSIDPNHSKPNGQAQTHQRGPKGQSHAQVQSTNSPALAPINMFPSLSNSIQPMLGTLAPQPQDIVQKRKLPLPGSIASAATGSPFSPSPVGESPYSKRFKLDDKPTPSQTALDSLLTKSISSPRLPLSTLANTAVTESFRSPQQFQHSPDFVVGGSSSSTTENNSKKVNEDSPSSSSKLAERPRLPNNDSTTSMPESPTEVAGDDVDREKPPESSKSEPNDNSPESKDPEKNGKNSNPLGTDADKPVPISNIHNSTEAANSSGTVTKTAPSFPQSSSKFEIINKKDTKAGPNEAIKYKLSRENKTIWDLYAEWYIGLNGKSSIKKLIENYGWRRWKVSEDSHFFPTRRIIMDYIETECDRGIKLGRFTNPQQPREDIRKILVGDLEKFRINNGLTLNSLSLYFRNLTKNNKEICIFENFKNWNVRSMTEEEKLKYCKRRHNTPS
In short: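 Masliner-normalised scans of fluorescent anti-GST signal were the basis for scoring. That signal came from GST-tagged yeast transcription factors applied at about 100-200 nM to double-stranded universal all-10-mer Agilent arrays on fresh or once-stripped slides. Each ungapped eight-base word, pooled with its reverse complement, received an E-score from the Universal PBM Analysis Suite.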

Going from GAGTGACC to GGCAATTA, the “PBM E-score” value falls from 0.068 to 0.0611.

Compared with CGACTTAC, GGATTGGA is higher in “PBM E-score” value: 0.117 for the first, 0.171 for the second.

First: ACAGTAAA
Second: AAGGGCAG
The “PBM E-score” value of the first is higher: 0.0252 for the first, -0.0882 for the second.

Compared with ATCGATGC, CCCGTCAC is lower in “PBM E-score” value: 0.0471 for the first, -0.00942 for the second.

Going from ATGAGGAG to AGAAGCCA, the “PBM E-score” value rises from -0.0645 to 0.362.

Going from AATCACGG to GATCTTCC, the “PBM E-score” value rises from -0.081 to 0.109.

Going from AGTATCAC to TTCACCAA, the “PBM E-score” value rises from -0.0564 to 0.133.

Compared with GTCCAGGA, GCATTTCC is lower in “PBM E-score” value: 0.0561 for the first, -0.0713 for the second.

Compared with AGCGGCAT, AAATTTAT is higher in “PBM E-score” value: 0.0618 for the first, 0.072 for the second.

First: CCGACTAG
Second: CTTAATGA
The “PBM E-score” value of the first is lower: -0.141 for the first, -0.0211 for the second.

Compared with GACGATAA, AGAATCGC is lower in “PBM E-score” value: 0.0266 for the first, -0.13 for the second.

First: CACTATGC
Second: GAGATTTA
The “PBM E-score” value of the first is higher: 0.125 for the first, 0.0724 for the second.

Going from CGGCACAG to AACACTAC, the “PBM E-score” value rises from -0.119 to 0.00557.

Going from ATGCGGAA to CCACACGG, the “PBM E-score” value falls from 0.186 to 0.0495.

Compared with GTCGTACA, GGATTGAC is higher in “PBM E-score” value: -0.144 for the first, -0.0943 for the second.

First: CAAAGCTA
Second: ACGCCAAA
The “PBM E-score” value of the first is lower: -0.204 for the first, 0.0403 for the second.

Going from AGCCGTGC to ACTTAATA, the “PBM E-score” value rises from -0.0926 to 0.0744.

Going from CCGCGAAA to ACCTGAGG, the “PBM E-score” value falls from 0.0578 to 0.0189.

Going from GCGATAGA to AAGATTAC, the “PBM E-score” value falls from 0.0698 to -0.09.

Compared with AAGTATCA, ATCGTTGG is lower in “PBM E-score” value: -0.154 for the first, -0.247 for the second.

Compared with GTTACCCA, ATATGCAC is higher in “PBM E-score” value: -0.141 for the first, -0.0108 for the second.

Compared with AGGTGGTC, GATCGGAC is higher in “PBM E-score” value: -0.0683 for the first, -0.00114 for the second.

Going from GCCTGGAA to ACATGTAG, the “PBM E-score” value rises from 0.0457 to 0.189.

Going from CAAACCAA to ACACGCGG, the “PBM E-score” value falls from 0.0373 to -0.0057.

First: GCTACACC
Second: ATATAGCA
The “PBM E-score” value of the first is lower: -0.16 for the first, 0.126 for the second.

First: CGATAACA
Second: CGTTCAGA
The “PBM E-score” value of the first is lower: -0.0286 for the first, 0.0533 for the second.

First: CGGCGATA
Second: AGTACAAA
The “PBM E-score” value of the first is higher: 0.198 for the first, -0.135 for the second.

Going from AAACTGCC to CGCTACCC, the “PBM E-score” value falls from -0.114 to -0.214.

Compared with CAACACTG, ACACAAAT is higher in “PBM E-score” value: 0.0305 for the first, 0.182 for the second.

Compared with AAGCATGG, ACTGATAT is higher in “PBM E-score” value: -0.203 for the first, 0.0718 for the second.

Compared with AGCTAACC, CCGCAGAG is higher in “PBM E-score” value: -0.145 for the first, -0.131 for the second.

Going from AACACGAG to ATTGCATA, the “PBM E-score” value falls from 0.0585 to -0.0467.

Going from ATGATGCA to CATCACTC, the “PBM E-score” value rises from -0.101 to 0.00067.

First: TCAGCCCA
Second: GAAGCCTA
The “PBM E-score” value of the first is lower: -0.291 for the first, 0.221 for the second.

Compared with AGTTGACG, AGTGAGCC is lower in “PBM E-score” value: 0.0851 for the first, -0.184 for the second.

Going from GATCAAAC to CTGTCACC, the “PBM E-score” value rises from -0.231 to 0.0918.

Going from CTTTAAAG to CATGTCAG, the “PBM E-score” value falls from -0.0252 to -0.182.

Compared with CTAGAATC, GCTTGGCC is lower in “PBM E-score” value: 0.0358 for the first, -0.0932 for the second.

Going from CGGGGCAA to CCTTCAAC, the “PBM E-score” value falls from -0.0073 to -0.0179.

Compared with CCCGTACG, ACGACTGG is higher in “PBM E-score” value: -0.27 for the first, -0.173 for the second.

Going from CCTGCCTC to ATCGTCAT, the “PBM E-score” value rises from -0.29 to 0.149.

Compared with CACTAACA, ACACGAAC is lower in “PBM E-score” value: 0.0523 for the first, 0.0505 for the second.

Compared with CGTTTCAC, CAATTAAA is higher in “PBM E-score” value: -0.0924 for the first, 0.157 for the second.

First: CGACGTCA
Second: AGTAAACC
The “PBM E-score” value of the first is higher: -0.0398 for the first, -0.199 for the second.

Compared with TTAGAGAA, CACGGACG is higher in “PBM E-score” value: -0.0293 for the first, 0.0339 for the second.

First: CGCTTGCC
Second: CAGGATCC
The “PBM E-score” value of the first is lower: -0.071 for the first, 0.345 for the second.

Going from AGACTATA to AATTTCCT, the “PBM E-score” value rises from -0.0926 to -0.044.

Going from AATAGTCC to GAACCCCC, the “PBM E-score” value rises from -0.197 to 0.0349.

Going from ATGCCTCC to CCCTCAGA, the “PBM E-score” value falls from 0.0648 to -0.197.

Compared with CGGACACA, ACCGAAGT is higher in “PBM E-score” value: -0.186 for the first, -0.151 for the second.

Going from GGGAGGAC to TCACTTCA, the “PBM E-score” value rises from -0.344 to -0.082.

Going from GCAACAAC to CGAAATAA, the “PBM E-score” value rises from -0.0872 to 0.0588.

Going from ATGCAATA to AGTCCCAC, the “PBM E-score” value rises from -0.0876 to -0.0297.

First: CGAATTCC
Second: ACAACCAA
The “PBM E-score” value of the first is higher: 0.256 for the first, 0.0609 for the second.

Going from GAGCATAC to AAAGCTTA, the “PBM E-score” value rises from -0.155 to -0.0667.

Compared with AGACATCT, AAGCGTTC is higher in “PBM E-score” value: 0.00522 for the first, 0.0323 for the second.

First: GATTCCCA
Second: GCCTGGCA
The “PBM E-score” value of the first is higher: 0.334 for the first, -0.0149 for the second.

Compared with AATAAAAT, ATCTCCAC is lower in “PBM E-score” value: 0.11 for the first, -0.0888 for the second.

Compared with AGCACCGG, GGTGTAGA is lower in “PBM E-score” value: 0.166 for the first, -0.122 for the second.

First: ACTCGTTA
Second: ATTAGTCC
The “PBM E-score” value of the first is lower: -0.226 for the first, -0.152 for the second.

Compared with AAGACACC, AAACTAAC is lower in “PBM E-score” value: -0.0424 for the first, -0.0608 for the second.

Compared with TCTCTCAA, AGACAACA is lower in “PBM E-score” value: -0.0205 for the first, -0.17 for the second.

First: GGAGCGTA
Second: ACAAATAT
The “PBM E-score” value of the first is lower: 0.0423 for the first, 0.0851 for the second.

First: TCAGCGCA
Second: ATGTGTGG
The “PBM E-score” value of the first is higher: 0.0204 for the first, -0.0628 for the second.

Compared with GATGCGCA, GGCGGTAC is lower in “PBM E-score” value: 0.134 for the first, -0.107 for the second.

Going from AGGTTTGA to AAGAGGAA, the “PBM E-score” value rises from 0.00972 to 0.285.

Compared with CTGGTAAG, ACATATTA is lower in “PBM E-score” value: 0.225 for the first, 0.179 for the second.

First: AGAATCAG
Second: GAGTAATC
The “PBM E-score” value of the first is higher: 0.0153 for the first, 0.0146 for the second.

Compared with AAAATGTT, GTAAATCA is higher in “PBM E-score” value: 0.0999 for the first, 0.21 for the second.

Going from GCTGGACC to ATGTATCA, the “PBM E-score” value rises from -0.153 to -0.0948.

First: AACCGATT
Second: CGAACCAC
The “PBM E-score” value of the first is lower: 0.00151 for the first, 0.0103 for the second.

First: AGTGCTCC
Second: GGGACGGA
The “PBM E-score” value of the first is lower: -0.116 for the first, -0.0942 for the second.

Going from AAGTACGA to GACTGCTC, the “PBM E-score” value falls from -0.0524 to -0.26.

Going from GAAGCCGC to CGGAACAG, the “PBM E-score” value falls from 0.439 to -0.0225.

Compared with TCCCACCA, CAGGCATA is lower in “PBM E-score” value: 0.0307 for the first, -0.095 for the second.

First: GATAGCAC
Second: ACTCGTAT
The “PBM E-score” value of the first is higher: 0.0962 for the first, 0.0663 for the second.

First: AGAGACCC
Second: GTGAGCGA
The “PBM E-score” value of the first is lower: -0.196 for the first, -0.193 for the second.

Going from AGGCTGAA to AAGGGTGA, the “PBM E-score” value falls from -0.0502 to -0.182.

First: CCGTCTCC
Second: CAGGAGCG
The “PBM E-score” value of the first is lower: -0.256 for the first, 0.154 for the second.

Going from GACCGTGC to CACACTAA, the “PBM E-score” value rises from -0.101 to -0.0887.

Going from GACTGCTA to CCGCCCAG, the “PBM E-score” value falls from -0.0477 to -0.144.

First: ACTGCATA
Second: ATTTAGCG
The “PBM E-score” value of the first is higher: 0.0703 for the first, 0.0447 for the second.

First: ACCACAAC
Second: GAGCGAAA
The “PBM E-score” value of the first is higher: 0.0974 for the first, 0.00366 for the second.

Compared with CGAGTCCA, CCCAGACC is lower in “PBM E-score” value: -0.051 for the first, -0.0513 for the second.

First: CAATGGAC
Second: CTCGGGCC
The “PBM E-score” value of the first is higher: 0.169 for the first, -0.107 for the second.

Going from ACTTAACT to CTGGGCTC, the “PBM E-score” value rises from -0.0577 to 0.146.
